About 200 (0.47%) of roughly 43,000 compounds were called active. Not shown: some 12% with an inconclusive outcome. Calls follow the shape of the dose curve; as a rule, active = well fitted cell-killing curve with a large enough effect; inconclusive = small, poorly fitted or top-dose-only effect, or effect the other way; inactive = flat fitted curve, though single readings scatter. Some of the results follow.
% is scaled to controls: 0 for no effect and ±100 for the full control effect.

This test in a line: Cell viability qHTS assay in S16 Pmp22-F2sN cells. Also: nearly all actives have a fitted effect of over 65% in size. The conditions noted are these: S16 Pmp22-F2sN Schwann cells (luciferase reporters placed in the Pmp22 gene) viability, CellTiter-Glo, 24 h; series mostly up to 57.5 µM; activity change, negative = cytotoxicity: at the top concentration. A digest of the protocol: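 Rat S16 Schwann reporter line, 24 h treatment with library compounds delivered at 23 nL per well. Cell viability by CellTiter-Glo luminescence.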
For the compound `CCOc1ccc(CCNC(=O)CSc2n[nH]c(-c3ccccc3)n2)cc1OCC`, the “activity change, negative = cytotoxicity” value was inactive: 0.408%.
For `Cc1ccc(CN2CCSc3ccc(C(=O)NCCc4ccccc4)cc32)cc1` the value was inactive: 4.41%; for `COc1ccc(CN(C(=O)Nc2cccc(Cl)c2)c2ccccn2)cc1OC`, inactive: -23.9%.
For the compound `COc1cccc(CSc2nc3n(n2)C(c2cccc(F)c2)C(C(=O)Nc2ccccc2C)=C(C)N3)c1` (stereo not drawn), the “activity change, negative = cytotoxicity” value is inactive: 7.32%.
For `CN(C)c1cc2c(cc1NS(=O)(=O)c1ccccc1)n(C)c(=O)n2C` the value was inactive: -5.69%; for `CCOc1ccc(-n2c(SCC(=O)NCc3ccco3)nc3c([nH]c4ccccc43)c2=O)cc1`, inactive: 8.35%; for `Cc1cccc(-c2nnc3n(CCc4ccccc4)c(=O)c4ccccc4n23)c1`, inactive: -20.9%.
Consider `COc1ccc2c(Sc3ccccc3)c(C(=O)NCc3ccc(OC(C)C)cc3)[nH]c2c1`, for which the “activity change, negative = cytotoxicity” value is inactive: 3.94%.
For `COc1cccc(CNC(=O)c2cc3n(n2)CCCN(Cc2ccc(C)cc2)C3=O)c1OC` the value was inactive: -7.07%; for `CCN(Cc1ccccc1)C(=O)Cn1c(=O)n(-c2ccc(OC)cc2OC)c(=O)c2c(C)c(C)sc21`, inactive: -29.4%.
Under `CCOc1ccc(NC(=O)c2c(NC(=O)Cc3ccccc3)sc3c2CCCC3)cc1` stands inactive: 6.14%.
As to `COc1ccc(Cl)cc1NC(=O)Cn1c(=O)n(Cc2ccco2)c(=O)c2ccc(C(=O)NC3CCCC3)cc21`, the “activity change, negative = cytotoxicity” value was inactive: -0.163%.
As to `CCOc1ccc(CNC(=O)c2ccc(-c3nc(CSc4ccc(C)cc4)c(C)o3)cc2)cc1`, the “activity change, negative = cytotoxicity” value is inactive: -0.319%.
For `Cc1ccc(NC(=O)c2sc(-n3nc(C)c(Cc4ccc(Cl)cc4)c3C)nc2C)cc1` the value was inactive: 1.43%.
Under `Cc1ccc(-n2c3nc(=O)[nH]c(=O)c-3cc3c(Cl)cccc32)cc1` stands inactive: -5.14%.
As for `Cc1ccc(C)c(NC(=O)N2CCN(C)c3ncccc32)c1`, the “activity change, negative = cytotoxicity” value is inactive: 12.6%.
For `Cc1ccc(Cn2ccnc2SCC(=O)Nc2ccc3c(c2)OCO3)cc1` the value was inactive: -2.72%; for `CCc1nc2nc(C)cc(Nc3ccc(Br)cc3F)n2n1`, inactive: -6.69%.
For `CCCCn1c2ccccc2c2nnc(SCC(=O)Nc3ccc(NC(C)=O)cc3)nc21`, the “activity change, negative = cytotoxicity” value is inactive: -20.9%.
Under `Cc1oc2ccc(O)c(CN(C)Cc3ccccc3)c2c1C(=O)Nc1cccc(Cl)c1C` stands inactive: -22.4%; under `Cc1ccc2c(=O)c(C(=O)c3ccc(F)cc3)cn(CC(=O)NC3CCCCC3)c2n1`, inactive: -2.4%; under `CC(=O)Nc1ccc(S(=O)(=O)Nc2ccc(-c3cn4c(C)csc4n3)cc2)cc1`, inactive: 5.07%.
Under `COC(=O)c1cc(S(=O)(=O)N2CCN(c3cccc(C)c3)C(C)C2)c[nH]1` (stereo not drawn) stands inactive: 26.3%; under `COc1ccccc1-c1cc(C(F)(F)F)nc(S(=O)(=O)CCCC(=O)Nc2cc(C)ccc2O)n1`, inactive: 17.4%.
For `COc1cccc(-n2c(=O)c3sc4ccccc4c3n(CC(=O)Nc3ccccc3OC)c2=O)c1` the value was inactive: 19.7%; for `Cc1ccc(-n2nc(CO)c(C(=O)NCCc3ccccc3)n2)cc1`, inactive: 8.02%; for `Cc1ccc(Cl)cc1N1CCN(C(=O)Cn2ncc3c([nH]c4ccccc43)c2=O)CC1`, inactive: 2.13%.
With `CCC(Sc1nc2ccncc2[nH]1)C(=O)Nc1ccc(F)cc1` (stereo not drawn), the “activity change, negative = cytotoxicity” value was inactive: -2.33%.
For `CCOC(=O)N1CCN(C(=O)c2ccc3c(c2)N(Cc2cc(C)ccc2C)C(=O)c2ccccc2S3=O)CC1` (stereo not drawn) the value was inactive: -0.858%; for `Cc1cc(C)cc(NC(=O)C(NS(=O)(=O)c2cccc3nsnc23)c2ccccc2)c1` (stereo not drawn), inactive: -3.12%; for `Cc1ccc(Cn2cnc3c(oc4ccccc43)c2=O)cc1`, inactive: 6.76%.
For `O=C(CSc1nnc(-c2ccc(Cl)cc2)o1)N1CCc2ccccc21` the value was inactive: 3.4%; for `O=C1CS(=O)(=O)C2(C(=O)N(Cc3ccc(F)cc3)c3ccccc32)N1c1cccc(C(F)(F)F)c1` (stereo not drawn), inactive: -3.05%; for `Cc1ccc2oc(C(=O)Nc3ccc(S(=O)(=O)Nc4onc(C)c4C)cc3)cc(=O)c2c1`, inactive: 5.75%.
For the compound `Cc1ccc(NC(=O)CCCn2c3ccccc3c(=O)c3cc(C)ccc32)c(Br)c1`, the “activity change, negative = cytotoxicity” value was inactive: -2.91%.
Regarding `O=C1c2[nH]nc(-c3ccccc3)c2C(c2ccccc2)N1c1cccc(C(F)(F)F)c1` (stereo not drawn), the “activity change, negative = cytotoxicity” value was inactive: 3.72%.
Under `O=C1SC(Nc2ccc(Cl)cc2)C(=O)N1Cc1ccccc1` (stereo not drawn) stands inactive: 8.5%; under `CCCCNC(=O)C1=CC(c2ccc3c(c2)OCO3)=NS(=O)(=O)N1C`, inactive: 5.38%; under `O=C(CSc1ncc(S(=O)(=O)c2ccc(Cl)cc2)c(=O)[nH]1)Nc1ccc2c(c1)OCCO2`, inactive: 4.42%.
For the compound `COc1cccc(C(=O)NCC(=O)OCc2cc(=O)n3nc(C)sc3n2)c1`, the “activity change, negative = cytotoxicity” value is inactive: -15.8%.
For `CCCC(=O)Nc1nnc(SCc2cc(=O)c3ccc(C)cc3[nH]2)s1` the value was inactive: -22.2%.
Under `COC(=O)c1ccc(Cn2nnc3sc4c(c3c2=O)CCC(C)C4)cc1` (stereo not drawn) stands inactive: -0.668%; under `CCc1ccccc1N(C)C(=O)Cn1cnc2sc(C)c(S(=O)(=O)N3CCN(c4ncccn4)CC3)c2c1=O`, inactive: 16.6%.
As for `COc1ccc(NC(=O)Cn2c(=O)oc3cc(S(=O)(=O)N4CCC(C)CC4)ccc32)c(OC)c1`, the “activity change, negative = cytotoxicity” value was inactive: -15.1%.
In the case of `Cc1ccc(Cl)cc1NC(=O)C1CCC(CNS(=O)(=O)c2cccc3nsnc23)CC1` (stereo not drawn), the “activity change, negative = cytotoxicity” value was inactive: 4.6%.
For `CCc1ccc2c(c1)NC(c1cccs1)=NC(c1ccc(F)cc1)=N2` the value was inactive: 19.9%; for `O=C(CCCN1C(=O)C(c2ccccc2)Oc2cccnc21)Nc1ccc(Br)cc1F` (stereo not drawn), inactive: 2.61%; for `COc1ccc2c(CNCCc3cccs3)c(C(=O)O)n(Cc3ccccc3)c2c1`, inactive: 7.93%.

The values above are taken from PubChem BioAssay AID1508642 (National Center for Advancing Translational Sciences (NCATS), 2021).
